# Measurements published in the supplement of paper PMC9135407.
# Values joined by “and” are separate entries in the source; they are usually repeats but may differ in a detail not shown here. Equal entries are not always repeated. Structures can show the parent of a compound that is named as a salt. Among all 5,800 compounds or so, about 620 (11%) showed activity.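 The calls were made as follows: active = score above a cut-off or among the top three wells of a plate; in these data no inactive exceeds 0.85.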 The entries are a selection whose mix differs from that of the whole data set.
# Tested on: primary human hepatic stellate cells (donor 1)
# Experiment: scaled lipid accumulation score (0 = DMSO-like, 1 = nortriptyline-like); higher = stronger HSC inactivation (lipid re-accumulation), active = hit call of the paper
# Details: 48 h
# [1] = library stock concentration: 10 mM
# [2] = library stock concentration: 1 mM
# [3] = library stock concentration: 3.33 mM
# [4] = library stock concentration: 4.9 mM
# [5] = library stock concentration: 80 uM
# [6] = library stock concentration: 400 uM
# [7] = library stock concentration: 2 mM
smiles,measurement,setting,value
O=S(=O)(O)c1cc(I)c(O)c2ncccc12,scaled lipid accumulation score,[1],inactive: ≤ 0
Cn1cc(C2=C(c3cn(CCCN)c4ccccc34)C(=O)NC2=O)c2ccccc21 [Bisindolylmaleimide VIII (acetate)],scaled lipid accumulation score,[2],inactive: ≤ 0
CCN1C(=CC(C)=O)Sc2ccc(OC)cc21,scaled lipid accumulation score,[3],inactive: ≤ -0.009
same,scaled lipid accumulation score,[1],inactive: ≤ 0
O=C1[C@H](CC[C@H](O)c2ccc(F)cc2)[C@@H](c2ccc(O)cc2)N1c1ccc(F)cc1,scaled lipid accumulation score,[1],inactive: ≤ 0
O=C1[C@H](CC[C@H](O)c2ccc(F)cc2)[C@@H](c2ccc(O)cc2)N1c1ccc(F)cc1 [Ezetimibe],scaled lipid accumulation score,[3],inactive: ≤ 0
same,scaled lipid accumulation score,[4],inactive: ≤ 0
same,scaled lipid accumulation score,[1],inactive: ≤ 0 and inactive: ≤ -0.027
CC1COCCN1c1cc(C2(S(C)(=O)=O)CC2)nc(-c2cccc3[nH]ccc23)n1 (stereo not drawn),scaled lipid accumulation score,[3],inactive: ≤ 0
same,scaled lipid accumulation score,[1],inactive: ≤ -0.001
CN(C)C/C=C/C(=O)Nc1cccc(Nc2ncc3c(n2)N(C)c2ccccc2C(=O)N3C)c1,scaled lipid accumulation score,[5],inactive: ≤ -0.009
same,scaled lipid accumulation score,[6],inactive: 0.1
same,scaled lipid accumulation score,[7],inactive: 0.846
same,scaled lipid accumulation score,[1],inactive: 0.566
CN1CCOC(c2ccccc2)c2ccccc2C1 (stereo not drawn) [Nefopam hydrochloride],scaled lipid accumulation score,,inactive: 0.521
CN1CCOC(c2ccccc2)c2ccccc2C1 (stereo not drawn) [Nefopam],scaled lipid accumulation score,library stock concentration: 7.9 mM,inactive: 0.53
same,scaled lipid accumulation score,[1],inactive: 0.244
COC(=O)c1ccc2c(c1)NC(=O)C2=C(Nc1ccc(N(C)C(=O)CN2CCN(C)CC2)cc1)c1ccccc1 [Nintedanib (BIBF 1120)],scaled lipid accumulation score,[3],active: 1.2
same,scaled lipid accumulation score,[1],active: 1.33
N=C(N)NCCCCN [Agmatine sulfate],scaled lipid accumulation score,[1],inactive: ≤ 0 and inactive: 0.044
CNCCC[C@]12CC[C@H](c3ccccc31)c1ccccc12 [Maprotiline HCl],scaled lipid accumulation score,library stock concentration: 7.2 mM,active: 1.22
CCc1cc(-c2n[nH]c(C)c2-c2ccc3c(c2)OCCO3)c(O)cc1O,scaled lipid accumulation score,[1],inactive: ≤ -0.001
CN1CCC(=C2c3ccccc3CCc3sccc32)CC1 [Pizotifen malate],scaled lipid accumulation score,,inactive: 0.782
CN1CCC(=C2c3ccccc3CCc3sccc32)CC1 [Pizotifen Malate],scaled lipid accumulation score,[3],inactive: 0.473
CN1CCC(=C2c3ccccc3CCc3sccc32)CC1 [Pizotyline malate],scaled lipid accumulation score,library stock concentration: 4.7 mM,inactive: 0.792
COc1ncc(-c2ccc3nccc(-c4ccnnc4)c3c2)cc1NS(=O)(=O)c1ccc(F)cc1F,scaled lipid accumulation score,[5],inactive: ≤ -0.009
same,scaled lipid accumulation score,[6],inactive: ≤ -0.009
same,scaled lipid accumulation score,[7],inactive: ≤ -0.009
same,scaled lipid accumulation score,[3],inactive: 0.066
same,scaled lipid accumulation score,[1],inactive: 0.479 and inactive: 0.24
CCN(CC)CCOc1ccc(C(=C(Cl)c2ccccc2)c2ccccc2)cc1 [Clomiphene citrate],scaled lipid accumulation score,[4],inactive: 0.705
same,scaled lipid accumulation score,[1],inactive: ≤ 0
CCN(CC)CCOc1ccc(C(=C(Cl)c2ccccc2)c2ccccc2)cc1 [Clomifene citrate],scaled lipid accumulation score,[3],inactive: 0.72
Cl.Cl.NC1(c2ccc(-c3nc4ccn5c(=O)[nH]nc5c4cc3-c3ccccc3)cc2)CCC1,scaled lipid accumulation score,[6],active: 1.07
same,scaled lipid accumulation score,[7],active: 1.23
C[C@@H](CN1CCC(n2c(=O)[nH]c3cc(Cl)ccc32)CC1)NC(=O)c1ccc2ccccc2c1.Cl,scaled lipid accumulation score,[1],active: 1.12
CN(C)[C@@H]1C(O)=C(C(=O)NCNCCCC[C@H](N)C(=O)O)C(=O)[C@@]2(O)C(O)=C3C(=O)c4c(O)cccc4[C@@](C)(O)[C@H]3C[C@@H]12 [Lymecycline],scaled lipid accumulation score,,inactive: 0.003
CCCCNc1ccc(C(=O)OCCN(C)C)cc1 [Tetracaine HCl],scaled lipid accumulation score,[3],inactive: 0.052
same,scaled lipid accumulation score,[1],inactive: 0.475
CCCCNc1ccc(C(=O)OCCN(C)C)cc1 [Tetracaine hydrochloride],scaled lipid accumulation score,library stock concentration: 6.6 mM,inactive: 0.296
same,scaled lipid accumulation score,[1],inactive: 0.379 and inactive: 0.168
O=C(Nc1ccc(-c2ccnc(Nc3ccc(N4CCOCC4)cc3)n2)cc1)[C@@H]1CCCN1,scaled lipid accumulation score,[1],active: 1.06
COc1ccc(NC(=O)c2ccc(-c3ccc(-c4noc(C)n4)cc3C)cc2)cc1N1CCN(C)CC1,scaled lipid accumulation score,[1],inactive: 0.278 and inactive: 0.753
COc1ccc2cc(-c3nc(-c4ccc([S+](C)[O-])cc4)[nH]c3-c3ccncc3)ccc2c1 (stereo not drawn) [Tie2 kinase inhibitor],scaled lipid accumulation score,[3],inactive: 0.024
same,scaled lipid accumulation score,[1],inactive: ≤ 0
CCCCCOC(=O)Nc1nc(=O)n([C@@H]2O[C@H](C)[C@@H](O)[C@H]2O)cc1F,scaled lipid accumulation score,[1],inactive: ≤ 0
CCCCCOC(=O)Nc1nc(=O)n([C@@H]2O[C@H](C)[C@@H](O)[C@H]2O)cc1F [Capecitabine],scaled lipid accumulation score,[3],inactive: ≤ 0
same,scaled lipid accumulation score,[1],inactive: ≤ 0
CN(C)CCOC(c1ccc(Cl)cc1)c1ccccn1 (stereo not drawn) [Carbinoxamine maleate salt],scaled lipid accumulation score,,inactive: 0.192
CN(C)CCOC(c1ccc(Cl)cc1)c1ccccn1 (stereo not drawn) [Carbinoxamine maleate],scaled lipid accumulation score,[4],inactive: 0.198
same,scaled lipid accumulation score,[1],inactive: ≤ 0
CN(C)CCOC(c1ccc(Cl)cc1)c1ccccn1 (stereo not drawn) [Carbinoxamine Maleate],scaled lipid accumulation score,[1],inactive: 0.55
Cc1cc(NC(=O)c2cccc(NC(=O)C=CCN(C)C)c2)ccc1Nc1nccc(-c2cccnc2)n1,scaled lipid accumulation score,[3],active: 1.08
same,scaled lipid accumulation score,[1],active: 1.02
"CCCCCCCC/C=C\CCCCCCCC(=O)OC[C@H](CO)OC(=O)CCCCCCC/C=C\CCCCCCCC [1,2-Dioleoyl-sn-glycerol]",scaled lipid accumulation score,[2],inactive: ≤ 0
CCCCCCCCCCCCCCCC(=O)C(F)(F)F [Palmityl Trifluoromethyl Ketone],scaled lipid accumulation score,[2],inactive: ≤ 0
CCCCCCCCCCCCCCCC(=O)C(F)(F)F,scaled lipid accumulation score,[1],inactive: 0.032
NC(=O)NC1NC(=O)NC1=O (stereo not drawn) [Allantoin],scaled lipid accumulation score,,inactive: 0.178
same,scaled lipid accumulation score,[1],inactive: ≤ 0
same,scaled lipid accumulation score,library stock concentration: 12.6 mM,inactive: ≤ 0
Clc1ccc2c(c1)C(N1CCNCC1)=Nc1ccccc1O2 [Amoxapine],scaled lipid accumulation score,library stock concentration: 6.4 mM,active: 0.886
CCCCC[C@H](O)/C=C/[C@@H]1[C@@H](C/C=C/CCCC(=O)O)[C@@H](O)C[C@H]1O [5-trans Prostaglandin F2.alpha.],scaled lipid accumulation score,[2],inactive: ≤ 0
CCCCC[C@H](O)/C=C/[C@@H]1[C@@H](C/C=C/CCCC(=O)O)[C@@H](O)C[C@H]1O [5-trans Prostaglandin F2.alpha. (tromethamine salt)],scaled lipid accumulation score,[2],inactive: ≤ 0
